# Experimental data: the supplement of paper PMC12217912
# Some of the results follow. The full chains were built here from the parent and the listed change. Values near 0.05 are background.
# B1: TEV protease; numbered along this chain (parent)
# chain: MGESLFKGPRDYNPISSSICHLTNESDGHTTSLYGIGFGPFIITNKHLFRRNNGTLVVQSLHGVFKVKDTTTLQQHLVDGRDMIIIRMPKDFPPFPQKLKFREPQREERICLVTTNFQTKSMSSMVSDTSCTFPSGDGIFWKHWIQTKDGQCGSPLVSTRDGFIVGIHSASNFTNTNNYFTSVPKNFMELLTNQEAQQWVSGWRLNADSVLWGGHKVFMVKPEEPFQPVKEATQL
# Variants of: B1
# Experiment: raw area under fraction-flipped curve 0-4 h after induction (AUC4h, not background-subtracted), DNA-recorder readout of cleavage of the substrate (dimensionless); higher = more cleavage of the substrate by the protease variant
# Conditions: temperature: 34 °C; time window: 0-4 h after rhamnose induction
# Method: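 In vivo DNA recorder in E. coli TOP10(DE3) ΔrhaA at 34 °C. Each TEVp single-site mutant (parent TEVp 0) is paired with a single-site variant of the 7-mer TEVs (canonical ENLYFQ|S). The substrate sits between flexible linkers in a Bxb1-sfGFP-TEVs-SsrA fusion, so cleavage stabilises Bxb1 and speeds flipping of a recombination array, read by NGS. The value is the raw area under the fraction-flipped curve over 0-4 h after rhamnose induction (AUC4h), with ≥20 reads per time point. It is not background-subtracted; inactive controls average about 0.047.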
# 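Also: Bxb1 expression induced with 0.2% (w/v) L-rhamnose at OD600 near 0.5, cultures sampled hourly, flipped fraction per protease–substrate barcode pair counted by paired-end Illumina sequencing.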
Variant,area with substrate ENLYFCS,area with substrate ENLYFGS,area with substrate ENLYFHS,area with substrate ENLYFIS,area with substrate ENLYFMS,area with substrate ENLYFPS,area with substrate ENLYFRS,area with substrate ENLYFTS,area with substrate ENLYFWS,area with substrate ENLYFDS,area with substrate ENLYFES,area with substrate ENLYFFS,area with substrate ENLYFKS,area with substrate ENLYFSS,area with substrate ENLYFVS,area with substrate ENLYFYS,area with substrate ENLYFLS,area with substrate ENLYFNS,area with substrate ENLYFAS
MGESWFKGPRDYNPISSSICHLTNESDGHTTSLYGIGFGPFIITNKHLFRRNNGTLVVQSLHGVFKVKDTTTLQQHLVDGRDMIIIRMPKDFPPFPQKLKFREPQREERICLVTTNFQTKSMSSMVSDTSCTFPSGDGIFWKHWIQTKDGQCGSPLVSTRDGFIVGIHSASNFTNTNNYFTSVPKNFMELLTNQEAQQWVSGWRLNADSVLWGGHKVFMVKPEEPFQPVKEATQL [L5W],0.0405,0.0888,0.0678,0.0556,0.0569,0.0686,0.0921,0.0475,0.0541,,,,,,,,,,
MGESLFKGPRDYNPISSSICHLTNESMGHTTSLYGIGFGPFIITNKHLFRRNNGTLVVQSLHGVFKVKDTTTLQQHLVDGRDMIIIRMPKDFPPFPQKLKFREPQREERICLVTTNFQTKSMSSMVSDTSCTFPSGDGIFWKHWIQTKDGQCGSPLVSTRDGFIVGIHSASNFTNTNNYFTSVPKNFMELLTNQEAQQWVSGWRLNADSVLWGGHKVFMVKPEEPFQPVKEATQL [D27M],0.0472,,,,0.0558,0.0592,0.0525,0.0531,,0.0664,0.0721,0.0646,0.0662,0.063,0.0529,0.0375,,,
MGESLFKGPRDYNPISSHICHLTNESDGHTTSLYGIGFGPFIITNKHLFRRNNGTLVVQSLHGVFKVKDTTTLQQHLVDGRDMIIIRMPKDFPPFPQKLKFREPQREERICLVTTNFQTKSMSSMVSDTSCTFPSGDGIFWKHWIQTKDGQCGSPLVSTRDGFIVGIHSASNFTNTNNYFTSVPKNFMELLTNQEAQQWVSGWRLNADSVLWGGHKVFMVKPEEPFQPVKEATQL [S18H],0.0604,0.0338,,0.0566,0.0576,0.0563,,0.0625,0.0555,0.0423,0.07,,,,,0.0356,0.0598,0.0649,
MGESLFKGPRDYNPISSSICHLTNESDGHTTSLYGIGFGPFIITNKHLFRRNNGTLVVQSLHGVFKVKDTTTLQQHLVDGRDMIIIRMPKDFPPFPQKLKFREPQREERICLVTTNFQTKSMSSMVSDTSCTFPSGDGIFWKHWIQTKDGQCGSPLVSTRDGFIVGIHSASNFTNTNNYFTSVPKNFMELLTNQEAQQWVSGWRLNADSVLWGGHKVFMVKPEEPFQPVKEATQK [L235K],,,,0.0618,0.0712,,,0.0574,,0.0674,,,0.0676,,0.0563,,,,0.058
MGESLFKGPFDYNPISSSICHLTNESDGHTTSLYGIGFGPFIITNKHLFRRNNGTLVVQSLHGVFKVKDTTTLQQHLVDGRDMIIIRMPKDFPPFPQKLKFREPQREERICLVTTNFQTKSMSSMVSDTSCTFPSGDGIFWKHWIQTKDGQCGSPLVSTRDGFIVGIHSASNFTNTNNYFTSVPKNFMELLTNQEAQQWVSGWRLNADSVLWGGHKVFMVKPEEPFQPVKEATQL [R10F],0.0717,,0.0559,0.056,0.0546,0.068,0.0499,0.0705,0.0595,0.0483,0.0612,0.0608,0.0575,0.0583,0.0616,0.0641,,0.079,
MGESLFKGPTDYNPISSSICHLTNESDGHTTSLYGIGFGPFIITNKHLFRRNNGTLVVQSLHGVFKVKDTTTLQQHLVDGRDMIIIRMPKDFPPFPQKLKFREPQREERICLVTTNFQTKSMSSMVSDTSCTFPSGDGIFWKHWIQTKDGQCGSPLVSTRDGFIVGIHSASNFTNTNNYFTSVPKNFMELLTNQEAQQWVSGWRLNADSVLWGGHKVFMVKPEEPFQPVKEATQL [R10T],0.0604,,0.0873,,0.0721,0.0615,,0.0588,,0.063,,0.0887,,,,,,0.0644,
MGESLFKGPRDYNPISSSICHLTNHSDGHTTSLYGIGFGPFIITNKHLFRRNNGTLVVQSLHGVFKVKDTTTLQQHLVDGRDMIIIRMPKDFPPFPQKLKFREPQREERICLVTTNFQTKSMSSMVSDTSCTFPSGDGIFWKHWIQTKDGQCGSPLVSTRDGFIVGIHSASNFTNTNNYFTSVPKNFMELLTNQEAQQWVSGWRLNADSVLWGGHKVFMVKPEEPFQPVKEATQL [E25H],0.0595,,0.0722,0.037,0.071,0.0573,0.0469,0.123,0.0534,0.0576,0.0422,0.0555,0.0642,,0.0643,0.0515,,,
MGESLFKGPRDYNLISSSICHLTNESDGHTTSLYGIGFGPFIITNKHLFRRNNGTLVVQSLHGVFKVKDTTTLQQHLVDGRDMIIIRMPKDFPPFPQKLKFREPQREERICLVTTNFQTKSMSSMVSDTSCTFPSGDGIFWKHWIQTKDGQCGSPLVSTRDGFIVGIHSASNFTNTNNYFTSVPKNFMELLTNQEAQQWVSGWRLNADSVLWGGHKVFMVKPEEPFQPVKEATQL [P14L],0.0683,0.0594,,0.0555,0.0754,0.0574,0.0604,0.0661,,0.0609,0.0646,0.0754,0.0641,0.055,0.0544,0.0492,0.051,,
MGESLFGGPRDYNPISSSICHLTNESDGHTTSLYGIGFGPFIITNKHLFRRNNGTLVVQSLHGVFKVKDTTTLQQHLVDGRDMIIIRMPKDFPPFPQKLKFREPQREERICLVTTNFQTKSMSSMVSDTSCTFPSGDGIFWKHWIQTKDGQCGSPLVSTRDGFIVGIHSASNFTNTNNYFTSVPKNFMELLTNQEAQQWVSGWRLNADSVLWGGHKVFMVKPEEPFQPVKEATQL [K7G],0.0549,0.0402,0.0677,0.0538,0.0634,0.0828,0.0596,0.0615,0.0738,,0.0632,0.073,,,0.0541,,0.0333,0.0615,
MGESLFLGPRDYNPISSSICHLTNESDGHTTSLYGIGFGPFIITNKHLFRRNNGTLVVQSLHGVFKVKDTTTLQQHLVDGRDMIIIRMPKDFPPFPQKLKFREPQREERICLVTTNFQTKSMSSMVSDTSCTFPSGDGIFWKHWIQTKDGQCGSPLVSTRDGFIVGIHSASNFTNTNNYFTSVPKNFMELLTNQEAQQWVSGWRLNADSVLWGGHKVFMVKPEEPFQPVKEATQL [K7L],0.0475,,,0.0528,0.0664,,0.0635,0.0541,0.0561,,,,,,,0.0417,,,
